# In PubChem BioAssay AID686979 (National Center for Advancing Translational Sciences (NCATS), 2013):
# Values joined by “and” are separate entries in the source; they are usually repeats but may differ in a detail not shown here. Equal entries are not always repeated. About 50,000 (12%) of roughly 420,000 compounds were called active. Inconclusive results, whose numbers are uncertain, are shown with a selection of clear calls. Calls come from the whole dose curve; as a rule, active = well fitted inhibition curve with a large enough effect; inconclusive = small, poorly fitted or top-dose-only effect; inactive = flat fitted curve, though single readings scatter. Potencies of inconclusive entries are doubtful fits and often do not repeat.
# Experiment: qHTS for Inhibitors of human tyrosyl-DNA phosphodiesterase 1 (TDP1): qHTS in cells in presence of CPT; note: nearly all actives have a fitted effect of over 55% in size
# Conditions: chicken DT40 Tdp1-/-;hTDP1 cells + 20 nM CPT, ATP luminescence, 48 h; activity change, negative = growth inhibition: at 46.2 µM (top of the series)
# Outline: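 Chicken DT40 Tdp1-/- cells stably complemented with human TDP1 were seeded at 400 cells/well in medium containing 20 nM camptothecin, exposed to pin-transferred compounds, and grown at 37 °C for at least 48 hr. Viability was read as ATP luminescence.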
# % is set by controls: 0 for no effect and ±100 for the full control effect; potency is the fitted concentration of half-maximal effect; tags give direction and shape of the fitted curve.
Compound,Potency,"activity change, negative = growth inhibition"
Cc1ccc(OCCSc2ncnc3nc[nH]c23)cc1,"inconclusive: 16.4 µM [inhibitor, partial curve]",
O=C(C[n+]1cc(Br)cc2ccccc21)c1ccc(Cl)cc1,"inconclusive: 35.5 µM [inhibitor, single point]",
Cc1cc(C)c2cc(CN(Cc3nnnn3Cc3ccc(F)cc3)C3CCCC3)c(=O)[nH]c2c1,active: 14.6 µM,
Cc1nc(-n2nc(C)c(CCC(C)C)c2C)sc1C(=O)Nc1ccc(Cl)cc1,"inconclusive: 29.1 µM [inhibitor, single point]",
Cc1ccc(S(=O)(=O)NC(C)C(c2cccs2)N2CCN(c3ccccc3)CC2)cc1 (centres undefined),"inconclusive: 29.1 µM [inhibitor, single point]",
COc1ccccc1CC(=O)N(Cc1ccccc1)c1cccc(C)c1,"inconclusive: 29.1 µM [inhibitor, single point]",
Cc1ccsc1C(=O)Nc1ccccc1N1CCOCC1,"inconclusive: 16.4 µM [inhibitor, single point]",
CCOC(=O)c1c(S(=O)(=O)N2CCCC(C(=O)NCc3ccccc3OC)C2)c(C)n(C)c1C (centres undefined),inactive,
C[C@@H](C(=O)NCc1c(F)cccc1Cl)N1C(=O)N2CCc3c([nH]c4ccccc34)[C@@]2(C)C1=O,active: 18.4 µM,
CCN(c1ccccc1)S(=O)(=O)c1ccc(Cl)c(C(=O)Nc2ccncc2)c1,"inconclusive: 20.6 µM [inhibitor, single point]",
COc1ccccc1-c1nnc(NC(=O)c2ccc(S(=O)(=O)N3CCOCC3)cc2)o1,"inconclusive: 29.1 µM [inhibitor, single point]",
O=C(Cn1nnc2c(cnn2-c2ccc(F)cc2)c1=O)OC1CCCCC1,"inconclusive: 23.1 µM [inhibitor, partial curve, poor fit]",
CCSc1nc2cc(S(=O)(=O)N3CCOCC3)ccc2o1,"inconclusive: 29.1 µM [inhibitor, single point]",
COc1cc(/C=C2/SC(=S)N(CC(=O)NC(C)(C)C)C2=O)cc(OC)c1OC,"inconclusive: 20.6 µM [inhibitor, partial curve]",
O=c1c(CCc2ccccc2)nc2cncnc2n1Cc1ccc(F)cc1,"inconclusive: 29.1 µM [inhibitor, single point]",
CSc1nncc(=O)[nH]1,"inconclusive: 29.1 µM [inhibitor, single point]",
CC(C)(C)CN1CCNC(=O)C1CC(=O)NCCc1ccccc1C(F)(F)F (centres undefined),"inconclusive: 23.1 µM [inhibitor, single point]",
COc1ccc(C(=O)C2CCCN(Cc3cc(C)c(O)c(C)c3)C2)c(OC)c1 (centres undefined),"inconclusive: 23.1 µM [inhibitor, single point]",
O=[N+]([O-])c1cccc(-c2nnc3ccc4ccccc4n23)c1,active: 16.4 µM,
Cc1cccc(C(=O)OC2CCCN(C)C2)c1C (centres undefined),inactive,
Cn1cncc1C#Cc1ccc2cc(CCCO)oc(=O)c2c1,inactive,
COc1ccc2c(c1)C(=NNC(=O)c1ccccn1)c1cc(OC)ccc1-2,active: 4.61 µM,
COc1ccc(C2NC(=O)C(C#N)=C(S)N2c2ccccc2)cc1OC (centres undefined),inactive,

Compound,Potency,"activity change, negative = growth inhibition"
COc1ccc(NC(=O)C(c2ccncc2)n2c(=O)c(-c3ccccc3)nc3ccccc32)cc1 (centres undefined),"inconclusive: 29.1 µM [inhibitor, single point]",
Cc1ccc(-c2nc(N3CCCC(C)C3)c3ccccc3n2)cc1 (centres undefined),"inconclusive: 16.4 µM [inhibitor, partial curve]",
CCN1CCN(c2ccc(NC(=O)COc3ccc([N+](=O)[O-])cc3)cc2)CC1,"inconclusive: 18.4 µM [inhibitor, partial curve]",
CCOC(=O)c1cc(OC)c2cccc(CN3CCC(C)(C(=O)NCCOC)C3)c2c1 (centres undefined),"inconclusive: 29.1 µM [inhibitor, single point]",
COc1cc(/C=c2\s/c(=C\C(=O)C(C)(C)C)[nH]c2=O)cc(OC)c1OC,"inconclusive: 23.1 µM [inhibitor, single point]",
c1ccc2[nH]c(CSc3nc4ccccc4o3)nc2c1,"inconclusive: 16.4 µM [inhibitor, single point]",
O=C(c1ccc(Cl)c(S(=O)(=O)N2CCCCCC2)c1)N1CCN(c2ccccn2)CC1,"inconclusive: 16.4 µM [inhibitor, single point]",
CC(C)CC(=O)Nc1nnc(CSCc2ccc(F)cc2)s1,inactive,
Cc1ccc(CNC(=O)c2ccc3c(O)c(S(=O)(=O)c4ccc(Cl)cc4)c(=O)[nH]c3c2)cc1,inactive,
CCOc1ccc(-n2c(-c3ccc(Br)cc3)c[n+]3c2CCCCC3)cc1,active: 4.61 µM,
Cc1ccc(/C=N/NC(=O)CSCc2ccc(Cl)cc2)cc1,"inconclusive: 29.1 µM [inhibitor, single point]",
Cc1cccc(N2CCN(C(=O)c3cnn4c(C(F)F)cc(-c5ccccc5)nc34)CC2)c1C,"inconclusive: 29.1 µM [inhibitor, single point]",
Cc1ccc(CN2CCCn3nc(C(=O)NCCc4ccccc4Cl)cc3C2=O)cc1,active: 20.6 µM,
COc1ccc(NC(=O)CSc2nc(=O)n(CCN(C)C)c3c2CCCC3)cc1OC,inactive,
C=CCSc1nc2sc3c(c2c(=O)[nH]1)CC(C)(CC)OC3 (centres undefined),"inconclusive: 29.1 µM [inhibitor, single point]",
Cc1nn(C)c2c1c(-c1ccccc1)cc(=O)n2CC(=O)NC(C)C,inactive,
COc1cccc(CNC(=O)C2CCCN(c3nc4ccccc4n4cccc34)C2)c1 (centres undefined),"inconclusive: 23.1 µM [inhibitor, single point]",
CCOc1ccccc1OCCCC(=O)Nc1cc(S(=O)(=O)N2CCCCC2)ccc1C,"inconclusive: 23.1 µM [inhibitor, single point]",
COc1cc(NC(=O)Cn2c(-c3cncs3)nc3ccccc32)cc(OC)c1OC,inactive,
Cc1ccc(-n2c(N)c(-c3nc4ccccc4n3C)sc2=S)cc1,"inconclusive: 18.4 µM [inhibitor, partial curve]",
COc1cccc(CN2CCC(C(=O)N3CCN(Cc4ccc5c(c4)OCO5)CC3)CC2)c1OC,"inconclusive: 16.4 µM [inhibitor, single point]",
CCCn1c2ccc(F)cc2c2nnc(SCCN(CC)CC)nc21,"inconclusive: 29.1 µM [inhibitor, single point]",
CN1CCC(=NNc2ccc(S(=O)(=O)N3CCOCC3)cc2[N+](=O)[O-])CC1,inactive,

Compound,Potency,"activity change, negative = growth inhibition"
CN(C)CCCN(Cc1cc2cc3c(cc2[nH]c1=O)OCCO3)C(=O)NC1CCCCC1,"inconclusive: 29.1 µM [inhibitor, single point]",
FC(F)(F)c1ccccc1Cc1c(-c2ccco2)nc2ccc(Br)cn12,"inconclusive: 18.4 µM [inhibitor, single point]",
Clc1ccc(Nc2c(-c3ccccc3Cl)nc3ccc(Cl)cn23)cc1,"inconclusive: 29.1 µM [inhibitor, single point]",
Cc1c(CCOC(=O)C2C3CC4CC(C3)CC2C4)sc[n+]1CC(=O)c1ccc(Br)cc1 (centres undefined),"inconclusive: 29.1 µM [inhibitor, single point] and inconclusive: 23.1 µM [inhibitor, single point]",
Cc1ccnc(NC(=O)CSc2cc(=O)n(C)c3ccccc23)c1,,inconclusive: -30.7% [inhibitor]
Cc1noc(C)c1-c1cc(NCc2cccs2)ncn1,"inconclusive: 29.1 µM [inhibitor, single point]",
CCOc1ccc(N2CC(NC(=O)C3CC3)CC2=O)cc1 (centres undefined),inactive,
COC(=O)CCCC1=CC2=CC(=O)C(C)(OC(=O)c3cccs3)C(=O)C2=CN1CCN1CCOCC1 (centres undefined),inactive,
Cn1c(-c2cccc([N+](=O)[O-])c2)cnc1NCc1cccc(F)c1,"inconclusive: 23.1 µM [inhibitor, partial curve]",
CCCOc1ccc(C2CC(=O)Nc3c2c(=O)n(C)c(=O)n3C)cc1OC (centres undefined),inactive,
Cc1cc(C(=O)O/N=C(\N)c2ccc(C(C)(C)C)cc2)no1,inactive,
COCC(C)Nc1ncnc2c1cnn2-c1ccc(C)c(C)c1 (centres undefined),"inconclusive: 29.1 µM [inhibitor, single point]",
CCOC(=O)c1cc(CC)sc1NC(=O)c1ccc(N2CCOCC2)c([N+](=O)[O-])c1,inactive,
CC(=O)C1=C(C)N(Cc2ccccc2)C(=O)N[C@H]1c1cccc(C(F)(F)F)c1,"inconclusive: 23.1 µM [inhibitor, partial curve]",
O=C(CN(C(=O)c1csnn1)c1cccc2ccccc12)NCc1ccc(F)cc1,inactive,
CCn1cc(C(=O)N[C@@H](C)C(=O)NCCO)c(=O)c2cc3c(cc21)OCO3,inactive,
CCCCN(CC)CCCNC(=O)Cn1ncc2c3ccccc3n(Cc3ccc(F)cc3)c2c1=O,"inconclusive: 11.6 µM [inhibitor, partial curve]",
S=c1[nH]nc(COc2ccccc2)n1/N=C/c1c(Cl)cccc1Cl,inactive,
O=C(c1cc(C2CC2)nn1-c1ccccc1)N1CCN(Cc2ccc(Cl)cc2)CC1,active: 18.4 µM,
COc1cccc(C(=O)/C=C/Nc2ccc(S(=O)(=O)Nc3cccc(C(C)=O)c3)cc2)c1,active: 18.4 µM,
COc1ccccc1CNS(=O)(=O)c1ccc2c(c1)CCCN2C(C)=O,inactive,
CCOC(=O)[C@]12CCC=C1N(Cc1ccccc1)C(=O)[C@H](CC(=O)NCCc1ccccc1OC)C2,"inconclusive: 25.9 µM [inhibitor, single point]",
Cc1cccc(C(CC(=O)NCCc2ccccc2)c2ccccc2)c1O (centres undefined),"inconclusive: 29.1 µM [inhibitor, single point]",
